# In the supplement of paper PMC8728848:
# The other results are listed elsewhere or left out.
# B1: GALT1 615 (Arabidopsis thaliana), Q8L7F9 (protein)
# chain: DPMRGSHHHHHHGMASMTGGQQMGRDLYDDDDKSRLQKPYITAAASVVVTPNTTLPMEWLRITLPDFMKEARNTQEAISGDDIAVVSGLFVEQNVSKEEREPLLTWNRLESLVDNAQSLVNGVDAIKEAGIVWESLVSAVEAKKLVDVNENQTRKGKEELCPQFLSKMNATEADGSSLKLQIPCGLTQGSSITVIGIPDGLVGSFRIDLTGQPLPGEPDPPIIVHYNVRLLGDKSTEDPVIVQNSWTASQDWGAEERCPKFDPDMNKKVDDLDECNKMVGGEINRTSSTSLQSNTSRGVPVAREASKHEKYFPFKQGFLSVATLRVGTEGMQMTVDGKHITSFAFRDTLEPWLVSEIRITGDFRLISILA
# Experiments:
# Experiment in all cases: glycan array binding signal (z-score within array); higher = stronger binding
# Conditions in all cases: glycan notation: IUPAC condensed, linker removed
# [1] = target: GlcNAc(b1-3)Gal(b1-4)GlcNAc
# Summary of the method: (§1)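 Negative Z-scores can be read as non-binding. The Z-score is calculated within each array and then averaged across arrays of one protein sequence at different concentrations or buffers and across linkers. Arrays, 3228 in all, were curated from the Consortium for Functional Glycomics database and kept only where the protein sequence was available.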
# [2] = target: GlcNAc(b1-3)Gal(b1-4)GlcNAc(b1-3)Gal(b1-4)GlcNAc
# Summary of the method: as §1
# GlcNAc(b1-3)GalNAc = target: GlcNAc(b1-3)GalNAc
# Summary of the method: as §1
# GlcNAc(b1-3)Man = target: GlcNAc(b1-3)Man
# Summary of the method: as §1
# [3] = target: GlcNAc(b1-3)[GlcNAc(b1-4)][GlcNAc(b1-6)]GlcNAc
# Summary of the method: as §1
# [4] = target: GlcNAc(b1-3)[GlcNAc(b1-6)]Gal(b1-4)GlcNAc
# Summary of the method: as §1
# [5] = target: GlcNAc(b1-3)[GlcNAc(b1-6)]GalNAc
# Summary of the method: as §1
# [6] = target: GlcNAc(b1-4)Gal(b1-4)GlcNAc
# Summary of the method: as §1
# GlcNAc(b1-4)GlcNAc = target: GlcNAc(b1-4)GlcNAc
# Summary of the method: as §1
# [7] = target: GlcNAc(b1-4)GlcNAc(b1-4)GlcNAc
# Summary of the method: as §1
# [8] = target: GlcNAc(b1-4)GlcNAc(b1-4)GlcNAc(b1-4)GlcNAc(b1-4)GlcNAc
# Summary of the method: as §1
# [9] = target: GlcNAc(b1-4)GlcNAc(b1-4)GlcNAc(b1-4)GlcNAc(b1-4)GlcNAc(b1-4)GlcNAc
# Summary of the method: as §1
# [10] = target: GlcNAc(b1-4)[GlcNAc(b1-6)]GalNAc
# Summary of the method: as §1
# [11] = target: GlcNAc(b1-6)Gal(b1-4)GlcNAc
# Summary of the method: as §1
# GlcNAc(b1-6)GalNAc = target: GlcNAc(b1-6)GalNAc
# Summary of the method: as §1
# GlcNAc3Prop(b1-4)GlcNAc = target: GlcNAc3Prop(b1-4)GlcNAc
# Summary of the method: as §1
# [12] = target: GlcNAc6S(b1-3)Gal(b1-4)GlcNAc
# Summary of the method: as §1
# Kdn(a2-3)Gal(b1-3)GalNAc = target: Kdn(a2-3)Gal(b1-3)GalNAc
# Summary of the method: as §1
# Kdn(a2-3)Gal(b1-3)GlcNAc = target: Kdn(a2-3)Gal(b1-3)GlcNAc
# Summary of the method: as §1
# Kdn(a2-3)Gal(b1-4)Glc = target: Kdn(a2-3)Gal(b1-4)Glc
# Summary of the method: as §1
# Kdn(a2-3)Gal(b1-4)GlcNAc = target: Kdn(a2-3)Gal(b1-4)GlcNAc
# Summary of the method: as §1
# [13] = target: Kdn(a2-3)Gal(b1-4)[Fuc(a1-3)]GlcNAc
# Summary of the method: as §1
# Kdn(a2-6)Gal(b1-4)GlcNAc = target: Kdn(a2-6)Gal(b1-4)GlcNAc
# Summary of the method: as §1
# [14] = target: Man(a1-2)Man(a1-2)Man(a1-3)Man
# Summary of the method: as §1
# [15] = target: Man(a1-2)Man(a1-2)Man(a1-6)[Man(a1-3)]Man
# Summary of the method: as §1
# Man(a1-2)Man(a1-3)Man = target: Man(a1-2)Man(a1-3)Man
# Summary of the method: as §1
# [16] = target: Man(a1-2)Man(a1-3)[Man(a1-2)Man(a1-6)]Man
# Summary of the method: as §1
# [17] = target: Man(a1-2)Man(a1-3)[Man(a1-2)Man(a1-6)]Man(a1-6)[Man(a1-2)Man(a1-2)Man(a1-3)]Man
# Summary of the method: as §1
# [18] = target: Man(a1-2)Man(a1-3)[Man(a1-2)Man(a1-6)]Man(a1-6)[Man(a1-2)Man(a1-2)Man(a1-3)]Man(b1-4)GlcNAc(b1-4)GlcNAc
# Summary of the method: as §1
# [19] = target: Man(a1-2)Man(a1-3)[Man(a1-6)]Man(a1-6)[Man(a1-2)Man(a1-3)]Man(b1-4)GlcNAc(b1-4)GlcNAc
# Summary of the method: as §1
# [20] = target: Man(a1-2)Man(a1-6)[Man(a1-3)]Man(a1-6)[Man(a1-2)Man(a1-2)Man(a1-3)]Man
# Summary of the method: as §1
# [21] = target: Man(a1-2)Man(a1-6)[Man(a1-3)]Man(a1-6)[Man(a1-2)Man(a1-2)Man(a1-3)]Man(b1-4)GlcNAc(b1-4)GlcNAc
# Summary of the method: as §1
# Man(a1-3)[Man(a1-6)]Man = target: Man(a1-3)[Man(a1-6)]Man
# Summary of the method: as §1
# [22] = target: Man(a1-3)[Man(a1-6)]Man(a1-6)[Man(a1-2)Man(a1-3)]Man(b1-4)GlcNAc(b1-4)GlcNAc
# Summary of the method: as §1
# [23] = target: Man(a1-3)[Man(a1-6)]Man(a1-6)[Man(a1-3)]Man
# Summary of the method: as §1
# [24] = target: Man(a1-3)[Man(a1-6)]Man(a1-6)[Man(a1-3)]Man(b1-4)GlcNAc(b1-4)GlcNAc
# Summary of the method: as §1
# [25] = target: Man(a1-3)[Man(a1-6)]Man(b1-4)GlcNAc(b1-4)GlcNAc
# Summary of the method: as §1
# Man(a1-6)Man = target: Man(a1-6)Man
# Summary of the method: as §1
binder,measurement,setting,value
B1,glycan array binding signal (z-score),[1],-0.353
same,glycan array binding signal (z-score),[2],-0.233
same,glycan array binding signal (z-score),GlcNAc(b1-3)GalNAc,-0.386
same,glycan array binding signal (z-score),GlcNAc(b1-3)Man,-0.138
same,glycan array binding signal (z-score),[3],-0.255
same,glycan array binding signal (z-score),[4],-0.348
same,glycan array binding signal (z-score),[5],0.618
same,glycan array binding signal (z-score),[6],-0.272
same,glycan array binding signal (z-score),GlcNAc(b1-4)GlcNAc,-0.143
same,glycan array binding signal (z-score),[7],-0.144
same,glycan array binding signal (z-score),[8],-0.001
same,glycan array binding signal (z-score),[9],-0.301
same,glycan array binding signal (z-score),[10],-0.607
same,glycan array binding signal (z-score),[11],1.03
same,glycan array binding signal (z-score),GlcNAc(b1-6)GalNAc,-0.21
same,glycan array binding signal (z-score),GlcNAc3Prop(b1-4)GlcNAc,-0.504
same,glycan array binding signal (z-score),[12],-0.341
same,glycan array binding signal (z-score),Kdn(a2-3)Gal(b1-3)GalNAc,-0.772
same,glycan array binding signal (z-score),Kdn(a2-3)Gal(b1-3)GlcNAc,0.05
same,glycan array binding signal (z-score),Kdn(a2-3)Gal(b1-4)Glc,-0.219
same,glycan array binding signal (z-score),Kdn(a2-3)Gal(b1-4)GlcNAc,0.051
same,glycan array binding signal (z-score),[13],-0.437
same,glycan array binding signal (z-score),Kdn(a2-6)Gal(b1-4)GlcNAc,-0.101
same,glycan array binding signal (z-score),[14],1.68
same,glycan array binding signal (z-score),[15],-0.364
same,glycan array binding signal (z-score),Man(a1-2)Man(a1-3)Man,-0.222
same,glycan array binding signal (z-score),[16],-0.169
same,glycan array binding signal (z-score),[17],0.183
same,glycan array binding signal (z-score),[18],-0.104
same,glycan array binding signal (z-score),[19],-0.3
same,glycan array binding signal (z-score),[20],-0.249
same,glycan array binding signal (z-score),[21],-0.415
same,glycan array binding signal (z-score),Man(a1-3)[Man(a1-6)]Man,-0.369
same,glycan array binding signal (z-score),[22],0.283
same,glycan array binding signal (z-score),[23],-0.124
same,glycan array binding signal (z-score),[24],-0.163
same,glycan array binding signal (z-score),[25],0.039
same,glycan array binding signal (z-score),Man(a1-6)Man,-0.275
